No constants are given. Whether binding was seen depends on the method and setting. Some entries that bind do so weakly or less than the wild type. Blank lines part the entries; values can stand above or below the binder they belong to.
Tests used:
Assay in all cases: two-hybrid; Gal4 yeast two-hybrid; baits in pGBT9, preys in pGAD424; yeast strain PJ69-4A; serial dilutions spotted on -LW and -LWH with an appropriate concentration of 3-AT; 3 days at 30 °C
AtIDD1 (Arabidopsis) = molecular target: T1, AtIDD1 (Arabidopsis) (UniProt Q9LVQ7)
T1 sequence: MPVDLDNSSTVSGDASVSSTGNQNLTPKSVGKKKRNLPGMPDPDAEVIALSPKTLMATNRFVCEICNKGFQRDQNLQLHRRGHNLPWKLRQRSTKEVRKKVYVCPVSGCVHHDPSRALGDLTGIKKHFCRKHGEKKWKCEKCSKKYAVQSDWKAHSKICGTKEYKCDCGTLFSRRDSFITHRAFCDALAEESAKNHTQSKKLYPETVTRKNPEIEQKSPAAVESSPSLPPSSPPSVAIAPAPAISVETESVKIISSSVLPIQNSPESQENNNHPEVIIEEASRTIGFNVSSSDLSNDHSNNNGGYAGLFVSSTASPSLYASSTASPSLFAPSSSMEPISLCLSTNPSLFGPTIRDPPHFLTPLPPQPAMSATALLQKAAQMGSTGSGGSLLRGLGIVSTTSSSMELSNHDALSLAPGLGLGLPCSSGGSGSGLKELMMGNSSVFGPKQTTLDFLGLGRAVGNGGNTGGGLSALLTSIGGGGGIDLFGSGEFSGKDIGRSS

AtIDD16 (Arabidopsis) = molecular target: T2, AtIDD16 (Arabidopsis) (UniProt Q9FRH4)
T2 sequence: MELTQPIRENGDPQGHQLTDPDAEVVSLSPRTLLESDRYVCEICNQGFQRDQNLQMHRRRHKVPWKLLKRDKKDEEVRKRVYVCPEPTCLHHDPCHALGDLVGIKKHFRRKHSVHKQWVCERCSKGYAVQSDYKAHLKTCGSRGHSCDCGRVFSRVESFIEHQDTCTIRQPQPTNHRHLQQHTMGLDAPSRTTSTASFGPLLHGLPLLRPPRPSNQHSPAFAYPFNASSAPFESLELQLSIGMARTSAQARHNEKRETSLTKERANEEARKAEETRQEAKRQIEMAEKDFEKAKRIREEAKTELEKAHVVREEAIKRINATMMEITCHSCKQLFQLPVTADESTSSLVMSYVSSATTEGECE

AtIDD10 (Arabidopsis) = molecular target: T3, AtIDD10 (Arabidopsis) (UniProt Q700D2)
T3 sequence: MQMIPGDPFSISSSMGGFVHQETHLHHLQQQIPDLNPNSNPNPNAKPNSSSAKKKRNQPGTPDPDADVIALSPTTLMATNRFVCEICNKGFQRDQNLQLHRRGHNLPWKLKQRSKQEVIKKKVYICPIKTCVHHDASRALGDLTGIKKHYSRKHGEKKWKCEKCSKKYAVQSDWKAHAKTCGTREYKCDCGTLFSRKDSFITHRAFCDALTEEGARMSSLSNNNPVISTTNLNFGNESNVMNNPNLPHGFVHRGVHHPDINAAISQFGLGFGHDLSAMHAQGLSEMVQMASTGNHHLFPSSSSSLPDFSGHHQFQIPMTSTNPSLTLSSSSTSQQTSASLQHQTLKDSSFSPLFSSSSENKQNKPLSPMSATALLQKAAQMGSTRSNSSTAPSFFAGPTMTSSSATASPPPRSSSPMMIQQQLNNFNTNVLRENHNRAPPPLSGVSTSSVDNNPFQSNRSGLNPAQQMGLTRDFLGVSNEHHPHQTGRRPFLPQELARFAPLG

AtIDD6 (Arabidopsis) = molecular target: T4, AtIDD6 (Arabidopsis) (UniProt Q8RWX7)
T4 sequence: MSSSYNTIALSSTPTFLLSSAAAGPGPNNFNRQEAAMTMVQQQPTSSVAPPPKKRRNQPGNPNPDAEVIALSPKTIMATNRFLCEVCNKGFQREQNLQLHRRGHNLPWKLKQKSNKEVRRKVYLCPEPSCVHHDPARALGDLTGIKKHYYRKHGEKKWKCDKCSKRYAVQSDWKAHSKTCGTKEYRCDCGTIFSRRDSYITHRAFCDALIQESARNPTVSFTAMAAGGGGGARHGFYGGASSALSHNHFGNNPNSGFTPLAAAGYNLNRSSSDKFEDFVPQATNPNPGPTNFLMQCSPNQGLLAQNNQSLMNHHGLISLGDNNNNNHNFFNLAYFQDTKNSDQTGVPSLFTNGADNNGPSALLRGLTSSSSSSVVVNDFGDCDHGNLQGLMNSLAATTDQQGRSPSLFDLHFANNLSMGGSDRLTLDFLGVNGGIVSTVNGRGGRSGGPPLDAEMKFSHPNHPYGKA

binding (AtIDD1 (Arabidopsis)): no binding
B1: AtIDD1 (protein, UniProt Q9LVQ7 1-500)
chain: MPVDLDNSSTVSGDASVSSTGNQNLTPKSVGKKKRNLPGMPDPDAEVIALSPKTLMATNRFVCEICNKGFQRDQNLQLHRRGHNLPWKLRQRSTKEVRKKVYVCPVSGCVHHDPSRALGDLTGIKKHFCRKHGEKKWKCEKCSKKYAVQSDWKAHSKICGTKEYKCDCGTLFSRRDSFITHRAFCDALAEESAKNHTQSKKLYPETVTRKNPEIEQKSPAAVESSPSLPPSSPPSVAIAPAPAISVETESVKIISSSVLPIQNSPESQENNNHPEVIIEEASRTIGFNVSSSDLSNDHSNNNGGYAGLFVSSTASPSLYASSTASPSLFAPSSSMEPISLCLSTNPSLFGPTIRDPPHFLTPLPPQPAMSATALLQKAAQMGSTGSGGSLLRGLGIVSTTSSSMELSNHDALSLAPGLGLGLPCSSGGSGSGLKELMMGNSSVFGPKQTTLDFLGLGRAVGNGGNTGGGLSALLTSIGGGGGIDLFGSGEFSGKDIGRSS

binding (AtIDD16 (Arabidopsis)): binds
B2: AtIDD15 (protein, UniProt F4IPE3 1-445)
chain: MRTDQVMLSNKNTNTCCVVSSSSSDPFLSSSENGVTTTNTSTQKRKRRPAGTPDPDAEVVSLSPRTLLESDRYICEICNQGFQRDQNLQMHRRRHKVPWKLLKRDNNIEVKKRVYVCPEPTCLHHNPCHALGDLVGIKKHFRRKHSNHKQWVCERCSKGYAVQSDYKAHLKTCGTRGHSCDCGRVFSRVESFIEHQDNCSARRVHREPPRPPQTAVTVPACSSRTASTVSTPSSETNYGGTVAVTTPQPLEGRPIHQRISSSILTNSSNNLNLELQLLPLSSNQNPNQENQQQKVKEPSHHHNHNHDTTNLNLSIAPSSSYQHYNNFDRIKEIMASEQIMKIAMKEKAYAEEAKREAKRQREIAENEFANAKKIRQKAQAELERAKFLKEQSMKKISSTIMQVTCQTCKGQFQAVAVPAATADETSLVVSYMSSANTDGELENGF

binding (AtIDD10 (Arabidopsis)): no binding
B3: AtIDD10 (protein, UniProt Q700D2 1-503)
chain: MQMIPGDPFSISSSMGGFVHQETHLHHLQQQIPDLNPNSNPNPNAKPNSSSAKKKRNQPGTPDPDADVIALSPTTLMATNRFVCEICNKGFQRDQNLQLHRRGHNLPWKLKQRSKQEVIKKKVYICPIKTCVHHDASRALGDLTGIKKHYSRKHGEKKWKCEKCSKKYAVQSDWKAHAKTCGTREYKCDCGTLFSRKDSFITHRAFCDALTEEGARMSSLSNNNPVISTTNLNFGNESNVMNNPNLPHGFVHRGVHHPDINAAISQFGLGFGHDLSAMHAQGLSEMVQMASTGNHHLFPSSSSSLPDFSGHHQFQIPMTSTNPSLTLSSSSTSQQTSASLQHQTLKDSSFSPLFSSSSENKQNKPLSPMSATALLQKAAQMGSTRSNSSTAPSFFAGPTMTSSSATASPPPRSSSPMMIQQQLNNFNTNVLRENHNRAPPPLSGVSTSSVDNNPFQSNRSGLNPAQQMGLTRDFLGVSNEHHPHQTGRRPFLPQELARFAPLG

binding (AtIDD6 (Arabidopsis)): no binding
B4: AtIDD6 (protein, UniProt Q8RWX7 1-467)
chain: MSSSYNTIALSSTPTFLLSSAAAGPGPNNFNRQEAAMTMVQQQPTSSVAPPPKKRRNQPGNPNPDAEVIALSPKTIMATNRFLCEVCNKGFQREQNLQLHRRGHNLPWKLKQKSNKEVRRKVYLCPEPSCVHHDPARALGDLTGIKKHYYRKHGEKKWKCDKCSKRYAVQSDWKAHSKTCGTKEYRCDCGTIFSRRDSYITHRAFCDALIQESARNPTVSFTAMAAGGGGGARHGFYGGASSALSHNHFGNNPNSGFTPLAAAGYNLNRSSSDKFEDFVPQATNPNPGPTNFLMQCSPNQGLLAQNNQSLMNHHGLISLGDNNNNNHNFFNLAYFQDTKNSDQTGVPSLFTNGADNNGPSALLRGLTSSSSSSVVVNDFGDCDHGNLQGLMNSLAATTDQQGRSPSLFDLHFANNLSMGGSDRLTLDFLGVNGGIVSTVNGRGGRSGGPPLDAEMKFSHPNHPYGKA
